# Experimental data from PubChem BioAssay AID686971 (National Center for Advancing Translational Sciences (NCATS), 2013).
# Screen size: about 360,000 compounds; about 7,500 (2.1%) were called active. The inconclusive results got no clear call from the source; some entries with a clear call stand among them for comparison. Calls follow the shape of the dose curve; as a rule, active = well fitted cell-killing curve with a large enough effect; inconclusive = small, poorly fitted or top-dose-only effect, or effect the other way, or another doubt; inactive = no such curve, though single readings can be large or run the other way. Potencies of inconclusive entries are left out as doubtful fits.
# Test: qHTS for induction of synthetic lethality in tumor cells producing 2HG: qHTS for the HT-1080-IDH1KD cell line
# Conditions: HT-1080 IDH1 knockdown viability, ATP luminescence, 48 h; activity, negative = toxicity: at 46.1 µM (top of the series) unless noted
# Text: Unbiased genomic sequencing for 22 glioma genomes found recurrent mutation of IDH1 on chromosome 2q33, a gene encoding the cytosolic isoform of IIDH1 associated with the tri-carboxylic acid cycle (TCA) that catalyzes the oxidative decarboxylation of isocitrate, yielding alpha-ketoglutarate and CO2 via NADP+ to NADPH conversion. Subsequent studies confirmed the recurrent IDH mutations in up to 70% of secondary gliomas and in 10% of AML cases. In addition, the somatic mutation of cancer-associated IDH1 is a point mutation resulting in various amino-acid substituents at Arginine132 (IDH1 R132), a key residue found in the enzyme's active site that when mutated, results in the loss-of-function in metabolizing isocitrate but confers a gain-of-function to produce the oncometabolite 2-hydroxyglutarate (2HG). This in effect defines IDH1 as an oncogene and provides an extraordinary opportunity to discover chemical probes against mutant IDH1 that may translate into much needed new therapies for glioma and AML patients.
# This assay aims to perform a synthetic-lethal screen for chemical probes specific for 2HG-producing tumor cells using matched paired cell lines (1) HT-1080-NT fibrosarcoma cell line that overproduces 2HG and (2) HT-1080-IDH1KD cell line which has IDH1 expression knocked-down. Desirable compounds are toxic to the NT fibrosarcoma cell line but not to the IDH1KD cell line. The data in this AID corresponds to the results of the qHTS against the HT-1080 IDH1KD cell line.
# [1] Dang L, Jin S, Su SM. IDH mutations in glioma and acute myeloid leukemia. Trends of Mol Med. 2010; 16(9): 387-97.
# [2] Dang L et al. Cancer-associated IDH1 mutations produce 2-hydroxyglutarate. Nature. 2010; 465(7300):966.
# Molecular Libraries Probe Production Centers Network [MLPCN]
# NIH Chemical Genomics Center [NCGC]
# Assay Submitter (PI): Lenny Dang Ph.D., Agios Pharmaceuticals
# Suspensions of trypsinized HT-1080-IDH1KD cells were dispensed into white, tissue culture-treated, solid 1536-well plates at 5uL/well (750 cells/well final concentration) in RPMI medium supplemented with 5% FBS. Plates were incubated at 37 degrees C for 2 hours, after which 23 nL of compounds or DMSO were delivered to each well using a pin tool. Plates were then incubated at 37 degrees C for an additional 48 hours. CellTiter-Glo viability reagent (Promega) was dispensed into wells (2.5uL/well) and incubated at room temperature for 10 minutes. The plates were measured on a PerkinElmer ViewLux plate reader for luminescent signal (clear filter, 1 sec exp.). DMSO-treated control wells and media-only (no cells) control wells were used to normalize %Activity of identified toxic compounds; DMSO-treated wells corresponded to 0%Activity (100% viability), while media-only controls were used to normalize 100%Activity (0% viability). To minimize variability between cell lines, both HT-1080-NT and HT-1080-IDH1KD lines were dispensed and treated with identical compound series in single batches.
# Concentration-response curves were fitted to the signals arising from the resulting luminescence. The concentration-effect curves were then classified based on curve quality (r2), response magnitude and degree of measured activity, and compounds were subsequently categorized based on their curve class.
# Potency is read from the fitted curve at half-maximal effect; tags tell the direction and shape of the fitted curve.
SMILES,"activity, negative = toxicity",Potency
CC(C(=O)c1c[nH]c2ccccc12)N1CCc2ccccc2C1 (stereo not given),inactive: -22.1%,
O=c1[nH]c2ccccc2n1C1CCN(C(c2cccc3ccccc23)c2nnnn2Cc2ccccc2)CC1 (stereo not given),,"inconclusive [cytotoxic, partial curve]"
CCOc1ccc(N2C(=O)NC(=O)/C(=C\c3ccc(N4CCCCC4)o3)C2=O)cc1,inactive: 13.4%,
CCCc1nc(SCC(=O)N2CCc3ccccc3C2)c2ccccc2n1,,"inconclusive [cytotoxic, single point]"
CC(C)(C)c1ccc(CN2C(=O)CN=C(c3ccccc3)c3ccccc32)cc1,,"inconclusive [cytotoxic, single point]"
COc1ccc2[nH]c3c(c2c1)CCN[C@H]3C,,"inconclusive [cytotoxic, single point]"
C=CCn1c(O)c(C(CC)=NCCc2c[nH]c3ccccc23)c(=O)[nH]c1=O,,"inconclusive [cytotoxic, partial curve]"
Cn1c(=O)oc2cc(S(=O)(=O)N3CCCc4ccccc43)ccc21,,active: 8.2 µM
Nc1c2c(nc3sc4c(c13)CCCC4)CCCC2,,"inconclusive [cytotoxic, single point]"
Fc1ccc(C(OCCN2CCCC2)c2ccc(Br)cc2)cc1 (stereo not given),,active: 16.4 µM
N#Cc1cc2c(nc1SCC(=O)Nc1cc(Cl)ccc1Cl)C1CCN2CC1,,"inconclusive [cytotoxic, single point]"
CN1CN(c2ccccc2)C2(CCN(CCCSc3ccccc3NC(=O)/C=C/c3ccccc3)CC2)C1=O,,"inconclusive [cytotoxic, single point]"
COC(=O)C1=C(c2ccc(OC)c(OC)c2)C[C@@H]2CC[C@H]1N2C(=O)NCCCOC(C)C,inactive: 13.3%,
O=C(NN=Cc1ccc(N(CCCl)CCCl)cc1)c1cccc([N+](=O)[O-])c1,,"inconclusive [cytotoxic, single point]"
C=CCn1c(O)c(/C=C2/C=CC=N2)c(=O)[nH]c1=O,,"inconclusive [cytotoxic, single point]"
CC(C)(C)C1(CCO)C(=O)NC(=S)NC1=O,inactive: 13.9%,
COc1cc2c3c(c1OC)-c1cc(O)ccc1CC3NCC2 (stereo not given),inactive: 1.6%,
CCc1ccc(CN2CCN(Cc3ccc(SC)cc3)CC2)cc1,,"inconclusive [cytotoxic, single point]"
c1ccc(CN2CCNCC2)nc1,inactive: -18.2%,
Cc1cc(C)cc(N2C(=O)NC(=O)/C(=C\C=C\c3ccco3)C2=O)c1,,"inconclusive [cytotoxic, single point]"
Cc1cc2ccccn2c1C(C[N+](=O)[O-])c1c(F)cccc1Cl (stereo not given),,active: 10.3 µM
CN(C)c1ncc(C2=C(Cl)C(=O)C(N3CCCC3)=C(Cl)C2=O)s1,,active: 8.91 µM
OC(Cc1ccccc1)(c1ccccc1)C1CN2CCC1CC2 (stereo not given),,"inconclusive [cytotoxic, single point]"
O=C(CCCc1ccc(N(CCCl)CCCl)cc1)NCc1ccccc1,,active: 23.1 µM

SMILES,"activity, negative = toxicity",Potency
COc1cccc(C(c2nnnn2C2CCCC2)N2CCC3(CC2)C(=O)NCN3c2ccccc2)c1OC (stereo not given),,"inconclusive [cytotoxic, single point]"
CN1CCc2nc(SCc3cccc(Br)c3)c(C#N)cc2C1,,"inconclusive [cytotoxic, partial curve]"
C=C1[C@@H](C)[C@H]2[C@H](Cc3ccccc3)NC(=O)[C@]23OC(=O)/C=C/[C@H](O)CCC[C@@H](C)C/C=C/[C@H]3[C@@H]1O,,active: 0.731 µM
CCCC[N+]12CCC(CC1)C(Cc1ccccc1)C2 (stereo not given),inactive: -9.35%,
O=C(NCC1=C(c2cccc3ccccc23)C[C@@H]2CC[C@H]1N2Cc1ccco1)c1cccs1,,"inconclusive [cytotoxic, single point]"
Cc1cc(OCC(=O)N[C@H](C(=O)O)c2ccccc2)c2c3c(c(=O)oc2c1)CCC3,inactive: 11.2%,
Cn1cnc([N+](=O)[O-])c1Sc1ccc([N+](=O)[O-])cc1,,active: 20.6 µM
COc1cc2c(c(OC)c1OC)-c1ccc(O)c(=O)cc1[C@@H](N)CC2,,"inconclusive [cytotoxic, single point]"
COc1ccc(CC(=O)C2C(=O)N(C)c3ccccc32)cc1OC (stereo not given),inactive: -19.3%,
OCCN1CCN(CCCN2c3ccccc3Sc3ccc(C(F)(F)F)cc32)CC1,,active: 23.1 µM
Cc1ccccc1-n1c(O)c(/C=C2/C(c3ccccc3)=Nc3ccccc32)c(=O)[nH]c1=O,,"inconclusive [cytotoxic, full curve]"
O=c1c2ccccc2nc(/C=C\c2ccccc2[N+](=O)[O-])n1-c1ccccc1O,,"inconclusive [cytotoxic, single point]"
CCCCCN1C(=O)c2cc(OC)ccc2[C@@]2(C(=O)OCC)Cc3cc(Cl)ccc3[C@@H]12,,active: 4.11 µM
CC1=C2C(=O)C3C(CC=C4CC(O)CCC43C)C2CCC12OC1CC(C)CNC1C2C (stereo not given),inactive: -1.06%,
CC/C(=C\C=C\[C@@H]1C=C[C@@H]2CCC[C@H]2[C@@H]1C(=O)c1ccc[nH]1)[C@@H]1O[C@@H]([C@@H](C)C(=O)O)CC[C@@H]1C,,active: 8.2 µM
C[C@]12CC[C@H](O)C[C@H]1CC[C@@H]1[C@@H]2C[C@@H](O)[C@]2(C)[C@@H](C3=CC(=O)OC3)CC[C@]12O,,active: 0.82 µM
COc1ccc(CC(=O)Nc2ccc3c(C(F)(F)F)cc(=O)oc3c2)cc1OC,inactive: 11.5%,
N#Cc1c(Cl)nc(Cl)c2c1CCN(Cc1ccccc1)C2,,"inconclusive [cytotoxic, partial curve]"
C=CCN1C(=O)NC(=O)/C(=C/c2ccc(OC)c(COc3ccc(NC(C)=O)cc3)c2)C1=O,,"inconclusive [cytotoxic, single point]"
CC(Cc1ccccc1)NCCC(c1ccccc1)c1ccccc1 (stereo not given),inconclusive: -24.3% [cytotoxic],
Cc1cccc(N2C(=O)NC(=O)/C(=C\c3cnn(-c4ccccc4)c3)C2=O)c1,,"inconclusive [cytotoxic, single point]"
CCOC(=O)[C@]12Cc3cc(Cl)ccc3[C@H]1N(C1CCCCC1)C(=O)c1ccccc12,,active: 2.31 µM
CCC(C)NC(=O)CCC(=O)OC1O[C@H]2OC3(C)CC[C@H]4[C@H](C)CCC(C1C)C24OO3 (stereo not given in full),,active: 7.31 µM
O=C(CSC1c2ccccc2-c2ccccc21)N/N=C/c1ccccc1O,,"inconclusive [cytotoxic, full curve, poor fit]"

SMILES,"activity, negative = toxicity",Potency
CN1C2CCC1CC(OC(c1ccccc1)c1ccccc1N)C2 (stereo not given),,"inconclusive [cytotoxic, partial curve]"
CCC1(CC)C(=O)NC(=O)N(CCc2ccccn2)C1=O,,"inconclusive [rising, partial curve]"
O=[N+]([O-])c1ccc(N2CCCC2)c2ncccc12,inactive: 6.26%,
Clc1ccc(C(OCCN2CCCCC2)c2ccccc2)cc1 (stereo not given),inconclusive: -15.5% [cytotoxic],
COC(=O)C1=C(c2cc3ccccc3o2)C[C@@H]2CC[C@H]1N2C(=O)NCCCOC(C)C,inactive: -5.62%,
O=C(O)c1cccc2c1NC(C(=O)O)C1CC(Sc3ccccc3[N+](=O)[O-])C(Cl)C21 (stereo not given),inactive: -0.102%,
COC(=O)C1=C(c2ccc(OC(F)(F)F)cc2)C[C@@H]2CC[C@H]1N2C(=O)NCc1cc(C)oc1C(F)(F)F,,"inconclusive [cytotoxic, single point]"
O=c1c2ccccc2nc(CN2CCCCCC2)n1-c1ccc(F)cc1,inactive: 0.806%,
CC1=CC(O)C(O)C2(C)C1CC1OC(=O)C(O)C3C(C)C(O)C4(O)OCC13C42 (stereo not given),,"inconclusive [cytotoxic, single point]"
Clc1cccc(N2Cc3cc(N4CCOCC4)ccc3-n3nncc3C2)c1,,"inconclusive [cytotoxic, single point]"
COc1ccc(C2=NCC(=S)Nc3ccc(Cl)cc32)cc1OC,inactive: -14.2%,
CCOc1ccc(-c2cc(C)[n+](CCN(CC)CC)c(-c3ccc(OCC)cc3)c2)cc1,,active: 5.17 µM
CN(C(=O)c1ccc(Cl)nc1)C1(c2ccccc2Cl)CCCCC1=O (stereo not given),inactive: -13.2%,
COc1ccc(C(c2nnnn2-c2c(C)cccc2C)N2CCC(n3c(=O)[nH]c4ccccc43)CC2)cc1 (stereo not given),,"inconclusive [cytotoxic, single point]"
c1ccc(CNc2c3c(nc4ccccc24)CCC3)cc1,,"inconclusive [cytotoxic, single point]"
CC(N=Cc1c(O)[nH]c(=O)[nH]c1=O)c1ccccc1 (stereo not given),,"inconclusive [cytotoxic, single point]"
COC(=O)[C@@H]1N=C(c2ccc(OC)cc2)O[C@]12C(=O)N(Cc1ccc(OC)cc1)c1ccccc12,,"inconclusive [cytotoxic, partial curve, poor fit]"
CCCCC(=O)N/N=C/c1c(O)n(CCc2ccccc2)c(=O)[nH]c1=O,,"inconclusive [cytotoxic, single point]"
CN(C)c1ccc(/C=C/C=C/c2sc3ccccc3[n+]2C)cc1,,"inconclusive [cytotoxic, full curve]"
CCNC(=O)[C@H]1O[C@@H](n2cnc3c(N)ncnc32)[C@H](O)[C@@H]1O,inactive: 5.76%,
COc1cccc(NP(=O)(Oc2ccc(Cl)cc2)Oc2ccc(Cl)cc2)c1,,"inconclusive [cytotoxic, single point]"
O=C(NCCO)c1nsnc1NCCCl,inactive: -1.27%,
